Test results published in the supplement of paper PMC10369915.
This is one part of the list. No stated cut-off is given here; in the data, active = 3.2 or more and inactive = the rest. Most of these values are background signal.

Columns and labels:
Test in all cases: enrichment score (SH2-bound / input frequency) (ratio); bacterial display of known human phosphotyrosine sites (pTyr-Var adds point mutants) read by sequencing; higher = stronger binding; tyrosines were phosphorylated by kinases first
Details in all cases: peptide library: pTyr-Var
[1] = molecular target: SHP2 C-SH2 domain E139D
[2] = molecular target: SHP2 C-SH2 domain wild-type
[3] = molecular target: SHP2 N-SH2 domain L43F
[4] = molecular target: SHP2 N-SH2 domain T42A
[5] = molecular target: SHP2 N-SH2 domain T52S
[6] = molecular target: SHP2 N-SH2 domain wild-type

Measured: enrichment score
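Further: displayed peptides selected on beads carrying the immobilized SH2 domain, with library peptides lacking any tyrosine serving as negative controls.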

B1: CNOT3_Y746_R750Q_YF (peptide)
chain: TFEFRYLEDQD
inactive: [1] 0.687 | [2] 0.724 | [3] 0.752 | [4] 0.7 | [5] 0.604 | [6] 0.711

B2: COX7A2_Y44 (peptide)
chain: DEIPLYLKGGV
inactive: [1] 0.676 | [2] 0.582 | [3] 0.731 | [4] 0.511 | [5] 0.638 | [6] 0.706

B3: COL4A2_Y306 (peptide)
chain: PGLRGYPGLSG
inactive: [1] 1.02 | [2] 0.876 | [3] 1.12 | [4] 0.854 | [5] 0.828 | [6] 1.16

B4: CLTCL1_Y1043 (peptide)
chain: TRVMEYISRLD
inactive: [1] 1.15 | [2] 0.825 | [3] 1.08 | [4] 1.01 | [5] 1.09 | [6] 0.954

B5: COX4I1_Y38_Y38F (peptide)
chain: FSLPAFMDRRD
inactive: [1] 0.948 | [2] 0.839 | [3] 0.865 | [4] 0.885 | [5] 0.847 | [6] 0.86

B6: CNTN4_Y180 (peptide)
chain: ETGNLYIAKVE
inactive: [1] 0.775 | [2] 0.95 | [3] 0.846 | [4] 0.647 | [5] 0.801 | [6] 0.933

B7: CNGA3_Y168_W171C (peptide)
chain: PSSNLYYRCLT
inactive: [1] 0.597 | [2] 0.679 | [3] 0.662 | [4] 0.666 | [5] 0.578 | [6] 0.671

B8: COL6A1_Y878_T881M (peptide)
chain: VAVVQYSGMGQ
inactive: [1] 0.798 | [2] 0.693 | [3] 1.35 | [4] 0.949 | [5] 1.17 | [6] 1.04

B9: CP_Y539 (peptide)
chain: CLAKMYYSAVD
inactive: [1] 1.03 | [2] 0.815 | [3] 0.767 | [4] 0.75 | [5] 0.718 | [6] 0.95

B10: COL8A2_Y648_YF (peptide)
chain: PATFTYDEFKK
inactive: [1] 1.25 | [2] 0.867 | [3] 0.905 | [4] 0.758 | [5] 0.818 | [6] 1.24

B11: CNNM3_Y456 (peptide)
chain: DESEDYRDTVV
inactive: [1] 0.448 | [2] 0.565 | [3] 0.48 | [4] 0.457 | [5] 0.433 | [6] 0.843

B12: COL8A2_Y648 (peptide)
chain: PATYTYDEYKK
inactive: [1] 0.644 | [2] 0.54 | [3] 0.681 | [4] 0.59 | [5] 0.373 | [6] 0.531

B13: CPO_Y278_YF (peptide)
chain: KFGTNYRVGSS
inactive: [1] 0.817 | [2] 0.82 | [3] 1.03 | [4] 0.692 | [5] 0.931 | [6] 1.01

B14: COL6A3_Y524_S521L (peptide)
chain: DGLALYTGSAL
inactive: [1] 0.717 | [2] 0.915 | [3] 0.877 | [4] 0.682 | [5] 0.641 | [6] 1.01

B15: COL4A1_Y348 (peptide)
chain: KGERGYPGTPG
inactive: [1] 0.703 | [2] 0.615 | [3] 0.551 | [4] 0.542 | [5] 0.618 | [6] 0.606

B16: CNTN6_Y315 (peptide)
chain: GQLIFYAPPEW
inactive: [1] 1.44 | [2] 1.18 | [3] 1.74 | [4] 2.9 | [5] 1.72 | [6] 1.33

B17: COL6A3_Y543 (peptide)
chain: TSSAGYRAAEG
inactive: [1] 0.469 | [2] 0.523 | [3] 0.485 | [4] 0.499 | [5] 0.438 | [6] 0.541

B18: CP_Y539_D544E (peptide)
chain: CLAKMYYSAVE
inactive: [1] 1.01 | [2] 1.18 | [3] 1.03 | [4] 0.935 | [5] 0.914 | [6] 1.42

B19: COL10A1_Y623_G618V_YF (peptide)
chain: VTPVMYTFDEF
inactive: [1] 1.18 | [2] 0.948 | [3] 1.81 | [4] 0.866 | [5] 2.25 | [6] 1.17

B20: CNGA3_Y169_W171C_YF (peptide)
chain: SSNLFYRCLTA
inactive: [1] 0.644 | [2] 0.93 | [3] 0.867 | [4] 1.36 | [5] 0.745 | [6] 1.26

B21: CPS1_Y1069 (peptide)
chain: LAVPLYKNGVK
inactive: [1] 0.99 | [2] 0.725 | [3] 0.903 | [4] 0.782 | [5] 0.896 | [6] 0.733

B22: CNGB3_Y200_R203Q (peptide)
chain: MPLTEYLKQIK
inactive: [1] 0.744 | [2] 0.773 | [3] 0.742 | [4] 0.771 | [5] 0.967 | [6] 0.902

B23: CP_Y539_D544E_YF (peptide)
chain: CLAKMYFSAVE
inactive: [1] 1.29 | [2] 1.37 | [3] 1.23 | [4] 1.22 | [5] 1.2 | [6] 1.43

B24: CNKSR1_Y665 (peptide)
chain: QNRELYSEGLG
inactive: [1] 0.612 | [2] 0.511 | [3] 0.825 | [4] 0.611 | [5] 0.467 | [6] 0.617

B25: COL10A1_Y623_YF (peptide)
chain: GTPVMYTFDEF
inactive: [1] 0.972 | [2] 1.12 | [3] 0.865 | [4] 0.892 | [5] 1.09 | [6] 1.29

B26: CNKSR1_Y665_R662W (peptide)
chain: QNWELYSEGLG
inactive: [1] 0.844 | [2] 0.82 | [3] 0.931 | [4] 0.79 | [5] 0.982 | [6] 0.963

B27: CPS1_Y1450_R1453Q (peptide)
chain: FVHDNYVIQRT
inactive: [1] 0.938 | [2] 0.707 | [3] 0.831 | [4] 0.777 | [5] 0.578 | [6] 0.85

B28: CNGA3_Y169_W171C (peptide)
chain: SSNLYYRCLTA
inactive: [1] 0.675 | [2] 0.985 | [3] 0.654 | [4] 0.74 | [5] 0.779 | [6] 1.09

B29: CNGA3_Y168_P163L (peptide)
chain: LSSNLYYRWLT
inactive: [1] 2.65 | [2] 2.56 | [3] 2.44 | [4] 1.58 | [5] 2.33 | [6] 1.63

B30: CLSPN_Y887_P892T (peptide)
chain: NHRNQYQALKT
inactive: [1] 1.17 | [2] 0.872 | [3] 0.869 | [4] 0.858 | [5] 0.957 | [6] 0.87

B31: CNGA2_Y395 (peptide)
chain: DAVKHYMQFRK
inactive: [1] 0.544 | [2] 0.802 | [3] 0.865 | [4] 0.524 | [5] 0.63 | [6] 0.683

B32: CPOX_Y429_W427R (peptide)
chain: TARREYMHSPS
inactive: [1] 0.288 | [2] 0.267 | [3] 0.331 | [4] 0.366 | [5] 0.347 | [6] 0.281

B33: COL6A3_Y543_T538M (peptide)
chain: MSSAGYRAAEG
inactive: [1] 0.584 | [2] 0.522 | [3] 0.591 | [4] 0.538 | [5] 0.543 | [6] 0.555

B34: COL6A1_Y878 (peptide)
chain: VAVVQYSGTGQ
inactive: [1] 0.933 | [2] 0.706 | [3] 1.26 | [4] 0.845 | [5] 1.1 | [6] 0.989

B35: COL4A2_Y306_R304K (peptide)
chain: PGLKGYPGLSG
inactive: [1] 0.887 | [2] 0.837 | [3] 0.975 | [4] 0.857 | [5] 1.16 | [6] 1.16

B36: COL12A1_Y3043 (peptide)
chain: PGPPGYCDSSQ
inactive: [1] 0.646 | [2] 0.672 | [3] 0.58 | [4] 0.597 | [5] 0.672 | [6] 1.59

B37: COL12A1_Y3043_Q3048H (peptide)
chain: PGPPGYCDSSH
inactive: [1] 0.789 | [2] 0.803 | [3] 0.645 | [4] 0.738 | [5] 0.841 | [6] 0.841
